Source: article PMC11995724, “Antibiotic target discovery by integrated phenotypic and activity-based profiling of electrophilic fragments” (Cell chemical biology, 2025)
In all, about 3,200 compounds went through this assay and about 110 (3.4%) showed an effect of 50% or more. Some of the results follow.

Each molecule was assayed on T1, V. cholerae SAD30. Conditions: relative growth, OD600, LB; 25 µM; inhibitor.
T1 construct: SAD30
Parameters: species or system S. aureus MSSA476 (TSB) or V. cholerae SAD30 (LB); 384-well bacterial growth screen at 25 uM, OD600 relative to DMSO control

SMILES	% of control remaining
CCN(Cc1ccccc1)C(=O)CCl [6-O21, N-benzyl-2-chloro-N-ethylacetamide]	98.8909%
C=CCNC(=O)C(C#N)=Cc1cccc(C(F)(F)F)c1 [8-L09, 2-cyano-N-(prop-2-en-1-yl)-3-[3-(trifluoromethyl)phenyl]prop-2-enamide]	71.8559%
C=CC(=O)N(C)CC(=O)N1CCCCC1c1nc(C)c(C)s1 (centres unmarked) [2-E20, N-{2-[2-(4,5-dimethyl-1,3-thiazol-2-yl)piperidin-1-yl]-2-oxoethyl}-N-methylprop-2-enamide]	98.2245%
COc1ccc(C=C(C#N)C(=O)NCc2ccccc2)cc1 [8-K19, N-benzyl-2-cyano-3-(4-methoxyphenyl)prop-2-enamide]	71.0401%
C=CC(=O)Nc1ccc(C(=O)NC2CCN(S(C)(=O)=O)CC2)cc1 [2-M21, N-(1-methanesulfonylpiperidin-4-yl)-4-(prop-2-enamido)benzamide]	87.88%
C=CC(=O)Nc1ccc(C(=O)N2CCC(C)(C)S(=O)(=O)CC2)cc1 [3-E04, N-[4-(7,7-dimethyl-1,1-dioxo-1lambda6,4-thiazepane-4-carbonyl)phenyl]prop-2-enamide]	101.97%
CSc1cc(C(=O)CCl)ccc1NC(C)=O [10-H08, N-[4-(2-chloroacetyl)-2-(methylsulfanyl)phenyl]acetamide]	25.2484%
C=CC(=O)N1CCC(C(=O)NCc2nnc(C(C)C)n2C)CC1 [3-C16, N-{[4-methyl-5-(propan-2-yl)-4H-1,2,4-triazol-3-yl]methyl}-1-(prop-2-enoyl)piperidine-4-carboxamide]	97.3828%
N#CC(=Cc1ccc(Cl)cc1)C(=O)Nc1nccs1 [8-C11, 3-(4-chlorophenyl)-2-cyano-N-(1,3-thiazol-2-yl)prop-2-enamide]	70.4963%
Cc1cc(C)cc(-c2cc(NC(=O)CCl)n(-c3ccccc3)n2)c1 [4-K04, 2-chloro-N-[3-(3,5-dimethylphenyl)-1-phenyl-1H-pyrazol-5-yl]acetamide]	106.103%
CC1CC1c1ccc(C=C(C#N)C(=O)Nc2ccc(C(=O)O)cc2)o1 (centres unmarked) [9-G16, 4-{2-cyano-3-[5-(2-methylcyclopropyl)furan-2-yl]prop-2-enamido}benzoic acid]	84.5003%
O=C(CCl)c1ccc(CC(=O)N2CCOCC2)s1 [10-H06, 2-chloro-1-{5-[2-(morpholin-4-yl)-2-oxoethyl]thiophen-2-yl}ethan-1-one]	101.305%
C=CC(=O)N1CCC(C(=O)NCCC2(O)CCCOC2)CC1 (centres unmarked) [2-B04, N-[2-(3-hydroxyoxan-3-yl)ethyl]-1-(prop-2-enoyl)piperidine-4-carboxamide]	101.004%
O=C(CCl)N1CCC1c1cccc(F)c1 (centres unmarked) [5-K10, 2-chloro-1-[2-(3-fluorophenyl)azetidin-1-yl]ethan-1-one]	86.5819%
CC1CCc2c(sc(NC(=O)CCl)c2C(=O)OC(C)C)C1 (centres unmarked) [4-D07, propan-2-yl 2-(2-chloroacetamido)-6-methyl-4,5,6,7-tetrahydro-1-benzothiophene-3-carboxylate]	100.41%
Cc1c(C=C(C#N)C(=O)Nc2nccs2)cc(C#N)n1C [8-B18, 2-cyano-3-(5-cyano-1,2-dimethyl-1H-pyrrol-3-yl)-N-(1,3-thiazol-2-yl)prop-2-enamide]	74.0313%
C=CC(=O)NCCC(=O)N1CCc2cc(C)c([N+](=O)[O-])cc21 [3-F08, N-[3-(5-methyl-6-nitro-2,3-dihydro-1H-indol-1-yl)-3-oxopropyl]prop-2-enamide]	95.7949%
O=C(CCl)NCc1ccccc1C(F)(F)F [6-K10, 2-chloro-N-{[2-(trifluoromethyl)phenyl]methyl}acetamide]	92.0656%
O=C(CCl)N1c2ccc(F)cc2NC(=O)C12CCC2 [5-K09, 1'-(2-chloroacetyl)-6'-fluoro-3',4'-dihydro-1'H-spiro[cyclobutane-1,2'-quinoxalin]-3'-one]	94.8198%
C=CC(=O)NCCc1ccn(-c2ccc(F)cc2)n1 [2-P03, N-{2-[1-(4-fluorophenyl)-1H-pyrazol-3-yl]ethyl}prop-2-enamide]	113.818%
COC(=O)c1c(-c2ccccc2Cl)csc1NC(=O)CCl [4-F07, methyl 2-(2-chloroacetamido)-4-(2-chlorophenyl)thiophene-3-carboxylate]	96.9592%
CC(Cl)C(=O)N(Cc1ccccc1)Cc1ccccc1 (centres unmarked) [5-K19, N,N-dibenzyl-2-chloropropanamide]	59.5146%

SMILES	% of control remaining
CC(Cl)C(=O)NCCCc1c[nH]c2ccc(F)cc12 (centres unmarked) [7-J09, 2-chloro-N-[3-(5-fluoro-1H-indol-3-yl)propyl]propanamide]	64.1004%
N#CC(=Cc1ccccc1)C(=O)Nc1nncs1 [8-K09, 2-cyano-3-phenyl-N-(1,3,4-thiadiazol-2-yl)prop-2-enamide]	72.2638%
O=C(CCl)NCC1(c2ccccc2)CCC1 [4-O19, 2-chloro-N-[(1-phenylcyclobutyl)methyl]acetamide]	104.55%
O=C(CCl)N(CC1CCCO1)C1CCS(=O)(=O)C1 (centres unmarked) [5-N16, 2-chloro-N-(1,1-dioxo-1lambda6-thiolan-3-yl)-N-[(oxolan-2-yl)methyl]acetamide]	100.536%
C=CC(=O)NCc1cn(C)nc1-c1ccccn1 [2-H03, N-{[1-methyl-3-(pyridin-2-yl)-1H-pyrazol-4-yl]methyl}prop-2-enamide]	111.039%
COCCNC(=O)C(C#N)=Cc1cccc(O)c1 [9-H08, 2-cyano-3-(3-hydroxyphenyl)-N-(2-methoxyethyl)prop-2-enamide]	89.259%
C=CC(=O)NCCNC(=O)C1CC12CCSCC2 (centres unmarked) [2-O06, N-[2-({6-thiaspiro[2.5]octan-1-yl}formamido)ethyl]prop-2-enamide]	92.0486%
C=CC(=O)Nc1ccnn1C(C)C [2-O07, N-[1-(propan-2-yl)-1H-pyrazol-5-yl]prop-2-enamide]	90.9679%
C=CC(=O)N1CCC=C(c2cn(C(C)C)nn2)CC1 [3-D19, 1-{4-[1-(propan-2-yl)-1H-1,2,3-triazol-4-yl]-2,3,6,7-tetrahydro-1H-azepin-1-yl}prop-2-en-1-one]	102.5%
COc1cc(C=C(C#N)C(=O)NC2CCCCC2)cc(Cl)c1O [8-H21, 3-(3-chloro-4-hydroxy-5-methoxyphenyl)-2-cyano-N-cyclohexylprop-2-enamide]	80.5574%
CC1CCCN1C(=O)CNC(=O)CCl (centres unmarked) [7-L12, 2-chloro-N-[2-(2-methylpyrrolidin-1-yl)-2-oxoethyl]acetamide]	80.2247%
C=CC(=O)N1CCC(C(=O)Nc2ccccc2NS(C)(=O)=O)CC1 [3-C06, N-(2-methanesulfonamidophenyl)-1-(prop-2-enoyl)piperidine-4-carboxamide]	107.793%
CC(Cl)C(=O)Nc1c(Cl)cccc1Cl (centres unmarked) [4-B16, 2-chloro-N-(2,6-dichlorophenyl)propanamide]	102.653%
C=CC(=O)NCCc1nc(-c2ccccc2)nn1C [2-M12, N-[2-(1-methyl-3-phenyl-1H-1,2,4-triazol-5-yl)ethyl]prop-2-enamide]	85.4096%
O=C(CCl)NC(c1ccccc1)c1ccc(Cl)cc1 (centres unmarked) [4-G04, 2-chloro-N-[(4-chlorophenyl)(phenyl)methyl]acetamide]	113.004%
N#CC(=Cc1cccs1)C(=O)Nc1nccs1 [8-G13, 2-cyano-N-(1,3-thiazol-2-yl)-3-(thiophen-2-yl)prop-2-enamide]	71.7199%
C=CC(=O)N(C)C1CS(=O)(=O)C1 [1-E03, N-(1,1-dioxo-1lambda6-thietan-3-yl)-N-methylprop-2-enamide]	104.185%
Cc1ccc(NC(=O)CCl)cc1[N+](=O)[O-] [4-M13, 2-chloro-N-(4-methyl-3-nitrophenyl)acetamide]	93.6813%
Cn1c(=O)c(C(=O)CCl)c(N)n(Cc2ccccc2)c1=O [10-L15, 6-amino-1-benzyl-5-(2-chloroacetyl)-3-methyl-1,2,3,4-tetrahydropyrimidine-2,4-dione]	100.682%
CCn1cc(NC(=O)CCl)cn1.Cl [6-I15, 2-chloro-N-(1-ethyl-1H-pyrazol-4-yl)acetamide hydrochloride]	98.4359%
O=C(CCl)NCc1ccccc1SC(F)(F)F [7-N12, 2-chloro-N-({2-[(trifluoromethyl)sulfanyl]phenyl}methyl)acetamide]	82.7358%
C=CC(=O)N(C)CC(=O)Nc1ccc(N2C[C@@H](C)O[C@@H](C)C2)cc1 [3-H08, N-[({4-[(2R,6S)-2,6-dimethylmorpholin-4-yl]phenyl}carbamoyl)methyl]-N-methylprop-2-enamide]	93.3248%
